# Laboratory results as given in PubChem BioAssay (Tox21).
# Several values for one entry are separate records, joined by “and”; a condition that tells them apart may be missing. Equal entries are not always repeated. This list was built around the results that the source calls inconclusive (neither active nor inactive); the mix of calls is not that of the screen. For part of these data: A potency beside an inconclusive call is a rough fit, not a confirmed value. Activity calls are given as the source filed them. Unless noted, calls come from the whole dose curve; as a rule, active = well fitted curve in the direction sought with a large enough effect in the repeat runs; inconclusive = weak or mixed curves; inactive = no such curve, though single readings can be large; an effect the other way counts as inactive or inconclusive.
# Assays:
# [1] = qHTS assay for small molecule activators of the heat shock response signaling pathway (AID 743210; active = well fitted activation curve with a large enough effect in the signal ratio in the repeat runs, with a control signal flat, not every such curve was filed as active; inconclusive = weak or mixed curves; the % refers to the signal ratio; note: potency is the fitted concentration of half-maximal effect); settings: HeLa HSE-bla reporter, beta-lactamase ratio, 5 h; activation: at 62.6 µM (top of the series) unless noted
# In short: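 In HSE-bla HeLa cells, 5 h compound incubation (37 C) precedes addition of LiveBLAzer B/G substrate; after 2.5 h at room temperature, fluorescence intensity indicates reporter induction.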
# [2] = target: Bile acid receptor (Homo sapiens) (UniProt Q96RI1); assay: qHTS assay to identify small molecule agonists of the farnesoid-X-receptor (FXR) signaling pathway (AID 743220; active = well fitted activation curve with a large enough effect in the signal ratio in the repeat runs, not every such curve was filed as active; inconclusive = weak or mixed curves, or effect the other way; the % refers to the signal ratio; note: % is set by controls: 0 for no effect and ±100 for the full control effect); settings: HEK293T FXR-UAS-bla, beta-lactamase FRET ratio, 16 h; activation: at 62.6 µM (top of the series)
# UniProt Q96RI1, sequence (Q96RI1 whole entry, looked up): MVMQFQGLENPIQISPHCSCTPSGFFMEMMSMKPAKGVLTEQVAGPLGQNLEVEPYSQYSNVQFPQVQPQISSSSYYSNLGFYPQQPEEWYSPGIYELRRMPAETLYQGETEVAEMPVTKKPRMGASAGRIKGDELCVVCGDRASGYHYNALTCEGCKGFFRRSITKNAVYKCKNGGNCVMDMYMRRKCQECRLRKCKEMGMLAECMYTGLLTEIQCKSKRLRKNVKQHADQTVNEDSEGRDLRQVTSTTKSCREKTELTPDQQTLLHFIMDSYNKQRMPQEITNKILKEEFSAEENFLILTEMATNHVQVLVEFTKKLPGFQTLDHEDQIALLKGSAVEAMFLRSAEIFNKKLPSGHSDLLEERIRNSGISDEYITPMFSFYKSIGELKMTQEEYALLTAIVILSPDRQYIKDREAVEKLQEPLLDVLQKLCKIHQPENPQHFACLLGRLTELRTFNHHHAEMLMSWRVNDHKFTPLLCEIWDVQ
# In short: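 Beta-lactamase reporter under UAS control in GeneBLAzer FXR HEK 293T cells (5000/well) measured with LiveBLAzer FRET substrate after 2 h at room temperature. Compound exposure lasted 16 h at 37C.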
# [3] = target: Vitamin D3 receptor (Homo sapiens) (UniProt P11473); assay: qHTS assay to identify small molecule agonists of the vitamin D receptor (VDR) signaling pathway (AID 743222; calls by dose curve; note: % is set by controls: 0 for no effect and ±100 for the full control effect); settings: HEK293T VDR-UAS-bla, beta-lactamase FRET ratio, 16 h; activation: at 63.5 µM (top of the series) unless noted
# UniProt P11473, sequence (P11473 whole entry, looked up): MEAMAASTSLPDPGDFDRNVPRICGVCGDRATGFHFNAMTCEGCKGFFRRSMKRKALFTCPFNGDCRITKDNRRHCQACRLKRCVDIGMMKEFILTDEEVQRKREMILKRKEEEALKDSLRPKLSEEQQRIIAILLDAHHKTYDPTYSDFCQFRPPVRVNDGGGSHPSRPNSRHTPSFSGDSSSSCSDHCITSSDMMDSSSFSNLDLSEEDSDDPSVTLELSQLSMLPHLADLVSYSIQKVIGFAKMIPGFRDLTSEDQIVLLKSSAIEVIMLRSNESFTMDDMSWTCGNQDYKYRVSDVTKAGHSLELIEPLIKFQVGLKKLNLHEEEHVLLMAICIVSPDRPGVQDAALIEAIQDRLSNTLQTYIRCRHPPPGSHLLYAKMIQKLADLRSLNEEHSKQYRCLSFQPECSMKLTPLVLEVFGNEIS
# In short: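 VDR-bla cells, 2,000/well; 4 h preincubation 37C; cpd (DMSO) 16 h; LiveBLAzer B/G substrate 2 h RT; fluorescence intensity read.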
# [4] = qHTS assay to identify small molecule agonists of the vitamin D receptor (VDR) signaling pathway - cell viability counter screen (AID 743224); settings: VDR-bla HEK293T viability, CellTiter-Glo luminescence, 16 h; activity change, negative = cytotoxicity: at 62.6 µM (top of the series); note: nearly all actives have a fitted effect of over 50% in size; note: potency is the fitted concentration of half-maximal effect
# In short: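 Luminescence from CellTiter-Glo, read after 30 min at room temperature, reports viability of VDR-bla cells treated with compounds for 16 h at 37C in the wells used for the beta-lactamase FRET read.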
# [5] = target: Nuclear receptor ROR-gamma (Homo sapiens) (UniProt P51449); assay: qHTS assay to identify small molecule antagonists of the retinoid-related orphan receptor gamma (ROR-gamma) signaling pathway (AID 1159521; note: nearly all actives have a fitted effect of over 50% in size; note: potency is the fitted concentration of half-maximal effect)
# In short: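 Readout: ONE-Glo luciferase luminescence, 30 min at room temperature. System: Tet-on RORγ CHO, RORE-LUC. Sequence: compound 2 h, doxycycline 1 uM final, 16 h at 37 C.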
# [6] = qHTS assay to identify small molecule agonists of the AP-1 signaling pathway (AID 1159526; calls by dose curve; note: potency is the fitted concentration of half-maximal effect); settings: ME-180 (cervical carcinoma) AP-1-bla reporter, beta-lactamase FRET ratio, 5 h; activation: at 76.8 µM (top of the series) unless noted
# [7] = qHTS assay for small molecule activators of the heat shock response signaling pathway - cell viability counter screen (AID 743209); settings: HSE-bla HeLa viability, CellTiter-Glo luminescence, 5 h; activity change, negative = cytotoxicity: at 62.6 µM (top of the series); note: potency is the fitted concentration of half-maximal effect; nearly all actives have a fitted effect of over 50% in size
# In short: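 Luminescence from CellTiter-Glo, added after the beta-lactamase FRET read, gave the viability signal. Cells were HSE-bla HeLa treated with DMSO-dissolved compounds for 5 h at 37 C following overnight plating.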
# [8] = qHTS assay to identify small molecule agonists of the farnesoid-X-receptor (FXR) signaling pathway - cell viability counter screen (AID 743218); settings: FXR-bla HEK293T viability, CellTiter-Glo luminescence, 16 h; viability change, negative = cytotoxic: at 62.6 µM (top of the series) unless noted; note: nearly all actives have a fitted effect of over 45% in size; note: potency is the fitted concentration of half-maximal effect
# In short: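 HEK 293T FXR-bla cells; 5 h pre-incubation, 16 h compound exposure at 37 C; LiveBLAzer substrate 2 h RT, then CellTiter-Glo 30 min RT, luminescence.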
# [9] = target: Bile acid receptor (Homo sapiens) (UniProt Q96RI1); assay: qHTS assay to identify small molecule antagonists of the farnesoid-X-receptor (FXR) signaling pathway (AID 743217; active = well fitted inhibition curve with a large enough effect in the signal ratio in the repeat runs, not every such curve was filed as active; inconclusive = weak or mixed curves, or effect the other way; inactive = no such curve, though single readings can be large or run the other way; the % refers to the signal ratio; note: potency is the fitted concentration of half-maximal effect); settings: HEK293T FXR-UAS-bla, beta-lactamase ratio, CDCA-stimulated, 16 h; activity change, negative = inhibition: at 62.6 µM (top of the series) unless noted
# In short: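 HEK 293T FXR-UAS-bla, 5000 cells/well; compound + CDCA 50 uM final; 16 h, 37 °C; B/G FRET substrate 2 h RT; fluorescence.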
# [10] = target: Peroxisome proliferator-activated receptor delta (Homo sapiens) (UniProt Q03181); assay: qHTS assay to identify small molecule antagonists of the peroxisome proliferator-activated receptor delta (PPARd) signaling pathway (AID 743215; active = well fitted inhibition curve with a large enough effect in the signal ratio in the repeat runs, not every such curve was filed as active; inconclusive = weak or mixed curves, or effect the other way; inactive = no such curve, though single readings can be large or run the other way; the % refers to the signal ratio;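 note: cells stimulated with agonist L165041 at 300 nM final during compound exposure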; note: potency is the fitted concentration of half-maximal effect); settings: HEK293H PPARd-UAS-bla, beta-lactamase FRET ratio, antagonist, 17 h; ratio activity, negative = inhibition: at 62 µM (top of the series) unless noted
# UniProt Q03181, sequence (Q03181 whole entry, looked up): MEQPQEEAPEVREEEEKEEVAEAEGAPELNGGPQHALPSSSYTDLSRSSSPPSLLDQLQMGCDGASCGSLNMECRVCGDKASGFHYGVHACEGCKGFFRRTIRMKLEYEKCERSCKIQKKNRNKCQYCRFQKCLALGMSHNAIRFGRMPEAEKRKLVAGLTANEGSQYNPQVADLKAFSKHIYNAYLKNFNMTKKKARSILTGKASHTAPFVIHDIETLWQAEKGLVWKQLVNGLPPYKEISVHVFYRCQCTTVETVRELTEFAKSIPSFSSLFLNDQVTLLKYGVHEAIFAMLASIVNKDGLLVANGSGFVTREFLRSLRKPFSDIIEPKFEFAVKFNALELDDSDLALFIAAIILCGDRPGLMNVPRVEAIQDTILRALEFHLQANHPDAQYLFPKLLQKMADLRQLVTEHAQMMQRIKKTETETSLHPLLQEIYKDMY
# In short: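 Read-out is beta-lactamase FRET fluorescence, measured 2 h after substrate addition at room temperature. Beforehand, UAS-bla HEK293H cells carrying the PPARd reporter were exposed to compounds with L165041 at 300 nM final for 17 h at 37 C.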
# [11] = target: Vitamin D3 receptor (Homo sapiens) (UniProt P11473); assay: qHTS assay to identify small molecule antagonists of the vitamin D receptor (VDR) signaling pathway (AID 743223; active = well fitted inhibition curve with a large enough effect in the signal ratio in the repeat runs, not every such curve was filed as active; inconclusive = weak or mixed curves, or effect the other way; inactive = no such curve, though single readings can be large or run the other way; the % refers to the signal ratio; note: % is set by controls: 0 for no effect and ±100 for the full control effect); settings: VDR-UAS-bla HEK293T, beta-lactamase FRET ratio, 16 h; activity change, negative = inhibition: at 61 µM (top of the series) unless noted
# In short: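 After VDR-bla cells are plated and left 4 h at 37C, DMSO-dissolved compounds and 3 nM (final) calcitriol agonist are added. Incubation continues 16 h at 37C; FRET beta-lactamase substrate then develops 2 h at room temperature.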
# [12] = qHTS assay to identify small molecule antagonists of the peroxisome proliferator-activated receptor delta (PPARd) signaling pathway - cell viability counter screen (AID 743213); settings: PPARd-bla HEK293H viability, CellTiter-Glo luminescence, 17 h; viability change, negative = cytotoxic: at 62 µM (top of the series) unless noted; note: nearly all actives have a fitted effect of over 50% in size; note: potency is the fitted concentration of half-maximal effect
# In short: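 Same-well viability: cells pre-incubated 5 h, dosed with compound plus 300 nM L165041, kept 17 h at 37 C, FRET substrate 2 h RT, then CellTiter-Glo 30 min RT and luminescence.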
# [13] = qHTS assay to identify small molecule agonists of the peroxisome proliferator-activated receptor delta (PPARd) signaling pathway - cell viability counter screen (AID 743211); settings: PPARd-bla HEK293H viability, CellTiter-Glo luminescence, 17 h; activity change, negative = cytotoxicity: at 62.6 µM (top of the series); note: potency is the fitted concentration of half-maximal effect; nearly all actives have a fitted effect of over 55% in size
# In short: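 Multiplexed format: after the 2 h room-temperature LiveBLAzer B/G FRET step, CellTiter-Glo was added to the same wells. Luminescence after 30 min gave cell viability; compound exposure was 17 h at 37C.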
# [14] = qHTS assay to identify small molecule antagonists of the vitamin D receptor (VDR) signaling pathway - cell viability counter screen (AID 743225); settings: VDR-bla HEK293T viability, CellTiter-Glo luminescence, 16 h; viability change, negative = cytotoxic: at 61 µM (top of the series) unless noted; note: nearly all actives have a fitted effect of over 50% in size; note: potency is the fitted concentration of half-maximal effect
# In short: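 Cytotoxicity toward the VDR-bla HEK 293T line was scored by ATP-based CellTiter-Glo luminescence, read in the wells already used for the beta-lactamase readout after 16 h compound treatment under 3 nM 1-alpha,25-dihydroxyvitamin D3 stimulation.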
# [15] = qHTS assay for small molecule agonists of the antioxidant response element (ARE) signaling pathway (AID 743202; active = well fitted activation curve with a large enough effect in the signal ratio in the repeat runs, not every such curve was filed as active; inconclusive = weak or mixed curves, or effect the other way; inactive = no such curve, though single readings can be large or run the other way; the % refers to the signal ratio; note: % is set by controls: 0 for no effect and ±100 for the full control effect); settings: HepG2 ARE-bla reporter, beta-lactamase FRET, 16 h; activation: at 73.3 µM (top of the series) unless noted
# In short: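 An ARE-responsive beta-lactamase gene stably integrated in HepG2 cells serves as reporter. After 5 h plating and 16 h compound incubation at 37 C, fluorescence of the B/G FRET substrate was measured.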
# [16] = target: Peroxisome proliferator-activated receptor delta (Homo sapiens) (UniProt Q03181); assay: qHTS assay to identify small molecule agonists of the peroxisome proliferator-activated receptor delta (PPARd) signaling pathway (AID 743212; calls by dose curve; note: % is set by controls: 0 for no effect and ±100 for the full control effect); settings: HEK293H PPARd-UAS-bla, beta-lactamase FRET ratio, 17 h; activation: at 62.6 µM (top of the series) unless noted
# In short: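 HEK293H UAS-bla reporter cells, human PPARd system; compounds delivered in DMSO after 5 h plating, then at 37 C. Beta-lactamase FRET read, 2 h RT substrate step.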
# [17] = qHTS assay to identify small molecule antagonists of the farnesoid-X-receptor (FXR) signaling pathway - cell viability counter screen (AID 743221; active = well fitted cell-killing curve with a large enough effect in the repeat runs, not every such curve was filed as active; inconclusive = weak or mixed curves, or effect the other way; inactive = no such curve, though single readings can be large or run the other way; note: nearly all actives have a fitted effect of over 50% in size; note: potency is the fitted concentration of half-maximal effect); settings: FXR-bla HEK293T viability, CellTiter-Glo luminescence, 16 h; activity change, negative = cytotoxicity: at 62.6 µM (top of the series) unless noted
# In short: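 CellTiter-Glo, 30 min RT, luminescence; same wells as the LiveBLAzer FRET read. Cells: FXR-UAS-bla HEK 293T. Treatment: compound with chenodeoxycholic acid 50 uM final, 16 h at 37 C.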
# Tags give direction and shape of the fitted curve or compound fluorescence and quenching.
smiles,measurement,setting,value
[O]=[Bi],Potency,[1],"inconclusive: 3 µM [activator, single point]"
same,activation,[2],inactive: 0.937% [at 5.95 µM]
same,activation,[3],inconclusive: -20.4% [at 6.01 µM]
same,Potency,[4],"inconclusive: 3.37 µM [cytotoxic, partial curve, poor fit]"
same,Potency,[5],"inconclusive: 4.2 µM [inhibitor, single point]"
same,Potency,[6],inconclusive: 3 µM
Nc1cccc([N+](=O)[O-])c1,Potency,[7],"inconclusive: 17 nM [cytotoxic, full curve, poor fit]"
same,Potency,[8],inactive
same,Potency,[5],"inconclusive: 1.34 µM [inhibitor, single point]"
same,Potency,[6],inactive
Nc1ncn([C@H]2C[C@H](O)[C@@H](CO)O2)c(=O)n1,Potency,[9],active: 10.6 µM
same,Potency,[8],inactive
same,Potency,[5],"inconclusive: 33.5 µM [inhibitor, single point]"
same,activation,[6],inconclusive: 0.457% [at 35.3 µM]
C=CCOc1ccccc1OCC(O)CNC(C)C (stereo unspecified),Potency,[10],inactive
same,Potency,[11],inactive
same,Potency,[5],"inconclusive: 33.5 µM [inhibitor, single point]"
same,Potency,[6],"inconclusive: 12 µM [falling, partial curve, poor fit]"
CC[N+](C)(C)c1cccc(O)c1,Potency,[12],inactive
same,Potency,[5],inactive
same,Potency,[6],inactive
NS(=O)(=O)c1cc2c(cc1Cl)NCNS2(=O)=O,Potency,[1],inactive
same,Potency,[8],"inconclusive: 7.8 nM [rising, full curve]"
same,Potency,[5],"inconclusive: 30.2 µM [inhibitor, partial curve, poor fit]"
same,Potency,[6],"inconclusive: 60.7 µM [falling, partial curve, poor fit]"
COCCCOc1ccnc(CS(=O)c2nc3ccccc3[nH]2)c1C (stereo unspecified),Potency,[13],"inconclusive: 5.47 µM [cytotoxic, full curve, poor fit]"
same,Potency,[14],"inconclusive: 12 µM [cytotoxic, single point]"
same,"viability change, negative = cytotoxic",[14],inconclusive: 0.57% [cytotoxic]
same,Potency,[5],inactive
same,Potency,[6],inconclusive: 0.0008 µM
O=C(O)CCCC(=O)O,Potency,[15],inactive
same,Potency,[16],inactive
same,Potency,[10],inactive
same,Potency,[8],"inactive and inconclusive: 61.7 µM [cytotoxic, single point]"
same,Potency,[4],inactive
same,"viability change, negative = cytotoxic",[14],inconclusive: -13.7% [cytotoxic]
same,Potency,[5],"inconclusive: 23.9 µM [inhibitor, partial curve, poor fit]"
same,Potency,[6],inactive
NC(=O)Nc1ccccc1,Potency,[10],"inconclusive: 52 µM [cytotoxic, single point]"
same,"activity change, negative = inhibition",[11],inconclusive: 28.7%
same,Potency,[5],inactive
same,Potency,[6],inactive
Nc1c(I)cc(I)c(C(=O)N(CCC(=O)O)c2ccccc2)c1I,Potency,[3],inactive
same,Potency,[11],inactive
same,Potency,[5],"inconclusive: 33.5 µM [inhibitor, single point]"
same,Potency,[6],inactive
CCCCNC(=O)NCCCC,activation,[15],inconclusive: -7.55%
same,Potency,[14],"inconclusive: 0.0219 µM [cytotoxic, full curve, poor fit]"
same,Potency,[5],inactive
same,Potency,[6],inactive
CN(C)CCOC1=Cc2ccccc2Sc2ccc(Cl)cc21,Potency,[1],inactive
same,Potency,[13],active: 26.6 µM
same,Potency,[12],active: 26.6 µM
same,Potency,[8],"inconclusive: 119 nM [rising, partial curve, poor fit]"
same,Potency,[17],inconclusive: 33.5 µM
same,"activity change, negative = inhibition",[11],inconclusive: -16%
same,Potency,[14],"inconclusive: 23.9 µM [cytotoxic, partial curve]"
same,Potency,[5],"inconclusive: 33.5 µM [inhibitor, partial curve, poor fit]"
same,Potency,[6],inconclusive: 6.01 µM [full curve]
Cc1cc(C)c(C)c(O)c1,activation,[15],inconclusive: -9.18%
same,Potency,[12],"inconclusive: 1.23 µM [cytotoxic, single point]"
same,Potency,[17],inactive
same,Potency,[3],inactive
same,Potency,[11],inactive
same,Potency,[5],inactive
same,activation,[6],inconclusive: 12.9%
